Experimental data taken from PubChem BioAssay AID624417 (National Center for Advancing Translational Sciences (NCATS), 2012).
Values joined by “and” are separate entries in the source; they are usually repeats but may differ in a detail not shown here. Equal entries are not always repeated. Screen size: about 410,000 compounds; about 6,400 (1.6%) were called active. Inconclusive means that the source gave no clear call. Such entries were picked first, then a sample of the others. Calls come from the whole dose curve; as a rule, active = well fitted inhibition curve with a large enough effect; inconclusive = small, poorly fitted or top-dose-only effect; inactive = no such curve, though single readings can be large or run the other way. A potency beside an inconclusive call is a rough fit, not a confirmed value.

biological target: Glucagon-like peptide 1 receptor (Homo sapiens) (UniProt P43220); experiment: qHTS of GLP-1 Receptor Inverse Agonists (Inhibition Mode); conditions: HEK293 GLP-1R CRE-luciferase, luminescence, 24 h, GLP-1R form is constitutively active; series mostly up to 38.3 µM; note: nearly all actives have a fitted effect of over 55% in size
Outline: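 Luminescence readout: a drop in cAMP-driven luciferase signal flags inverse agonism at a constitutively active GLP-1R stably expressed in HEK293. Compound exposure lasted 24 hr at 37 deg C, 5% CO2.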
Potency is the fitted concentration of half-maximal effect; tags give direction and shape of the fitted curve.

Sequence of UniProt P43220 (P43220 whole entry, looked up): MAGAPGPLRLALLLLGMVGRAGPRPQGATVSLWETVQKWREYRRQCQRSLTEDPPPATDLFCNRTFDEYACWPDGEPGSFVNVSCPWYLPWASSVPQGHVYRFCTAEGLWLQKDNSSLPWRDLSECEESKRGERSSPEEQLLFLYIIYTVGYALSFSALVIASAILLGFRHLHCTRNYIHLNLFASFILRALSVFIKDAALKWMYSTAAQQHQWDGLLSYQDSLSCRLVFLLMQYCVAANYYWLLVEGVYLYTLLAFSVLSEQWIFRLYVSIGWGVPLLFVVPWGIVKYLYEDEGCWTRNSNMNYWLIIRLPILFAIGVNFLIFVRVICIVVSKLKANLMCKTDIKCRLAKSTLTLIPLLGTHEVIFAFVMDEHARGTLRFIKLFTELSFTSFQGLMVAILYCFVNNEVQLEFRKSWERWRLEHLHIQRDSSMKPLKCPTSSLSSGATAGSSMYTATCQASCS

Potency, inactive:
Cc1c(C(=O)Nc2ccc(-c3nc4cc(Cl)ccc4o3)cc2)oc2ccccc12
CC(=O)c1ccc(OCc2cn(CC(=O)c3ccc(O)cc3)nn2)cc1
Cc1ccc(Nc2cc(-n3cccn3)ncn2)c(C)c1
CCOc1ccc(CNC(=O)C2CCN(S(=O)(=O)c3ccc4c(ccn4C)c3)CC2)cc1
CSc1ccc(CNc2cccc3ccccc23)cc1
N#CC1=C(SCc2ccccc2)NC(=O)CC1c1ccc(O)cc1 (centres undefined)
CCc1nnc(SCc2ccc(F)cc2Cl)c2cc3sc(C)cc3n12
O=c1[nH]c(Nc2ccccc2)cc2cc(Br)ccc12
O=C(Nc1nccs1)c1ccc(NC(=O)c2ccco2)cc1
CCc1ccc(OCc2nnc(SCC(=O)NCC3CCCO3)n2C)cc1 (centres undefined)
O=C(COc1ccc(-c2nnco2)cc1)N1CCN(S(=O)(=O)c2ccc3ccccc3c2)CC1
CC(C)c1cc(=O)oc2c3c4c(cc12)CCCN4CCC3
N#Cc1cc(-c2ccc(Cl)cc2)cn(Cc2c(Cl)cccc2Cl)c1=O
CC(C)C(=O)Nc1ccc2c(c1)nc(CCN1CCN(c3ccccn3)CC1)n2C

Potency, inconclusive:
Cc1oc(-c2cccc(C(F)(F)F)c2)nc1CN1CCC[C@H]1CO 15.8 µM [inhibitor, partial curve, poor fit]
C=CCNC(=S)N1CCc2[nH]c3ccccc3c2C1 8.91 µM [inhibitor, partial curve, poor fit]
COc1ccc(N(C)C(=O)c2nc(-c3cccc(F)c3)n3c2CCCCC3)c(OC)c1 28.2 µM [inhibitor, single point]
Cc1c(Cl)cccc1NC(=O)c1cc2sccc2n1Cc1ccc(F)cc1 28.2 µM [inhibitor, single point]
COc1ccc(CCn2c(SCCN3CCCCC3)nc3ccccc3c2=O)cc1OC 28.2 µM [inhibitor, single point]
COc1ccc(C(C)(C)C)cc1NC(=O)COC(=O)CSCc1c(C)noc1C 2.82 µM [inhibitor, partial curve, poor fit]
CC[C@@H]1C(c2cccc(C)c2)=NN(c2ccccc2)[C@H]1C(=O)N1CCOC1=O 28.2 µM [inhibitor, single point]
CCOc1ccc(-c2nc(N)ncc2-c2ccccc2OC)c(O)c1 31.6 µM [inhibitor, single point]
Cc1cccc(-c2ncc(CN3CCN(CCC(C)C)C(CCO)C3)cn2)c1 (centres undefined) 28.2 µM [inhibitor, single point]
COc1ccccc1-c1c(C)nn2c(N3CCN(Cc4ccccc4)CC3)cc(C)nc12 4.47 µM [inhibitor, full curve, poor fit]
CCCC(C)c1nnc(NC(=O)COc2ccc3c(c2)OCO3)s1 (centres undefined) 20 µM [inhibitor, partial curve, poor fit]
CC(C)Nc1nc(NCc2ccccc2)c2sccc2n1 28.2 µM [inhibitor, single point]
COc1ccc2[nH]c3c(c2c1)CCN1C(=O)C(CC(=O)NCc2ccco2)C[C@H](C(=O)N(C(C)C)C(C)C)[C@@]31C (some centres undefined) 6.31 µM [inhibitor, partial curve, poor fit]
CCCCCCOC(=O)Nc1ccc(S(=O)(=O)Nc2cccc([N+](=O)[O-])c2)cc1 28.2 µM [inhibitor, single point]
Cc1cccc(NC(=O)CSCC(=O)Nc2cccc(S(=O)(=O)N3CCCCCC3)c2)c1 10 µM [inhibitor, single point]
CCCc1nc(SCC(=O)N2CCC(C)CC2)c2c(=O)n(C)c(=O)n(C)c2n1 7.94 µM [inhibitor, partial curve, poor fit]
CC(C)N(C)c1ncnc2c1ncn2[C@H]1CN(Cc2ccc(-c3ccccc3)cc2)C[C@@H](CO)O1 28.2 µM [inhibitor, single point]
N#CC(c1ccc(Cl)cc1)c1nc2ccccc2nc1C(F)(F)F (centres undefined) 11.2 µM [inhibitor, single point]
COc1ccc2nc(N=NC3=C(O)CC(C)(C)CC3=O)sc2c1 28.2 µM [inhibitor, single point]
CC(=O)c1ccc(NC(=O)c2nc(-c3ccccc3)n(-c3ccccc3Cl)n2)cc1 11.2 µM [inhibitor, partial curve, poor fit]
S=C(NCc1ccc(Cl)cc1Cl)NC1CCCCC1 11.2 µM [inhibitor, single point]
Cc1ccc(CNc2ccc3c(c2)ncn3C(C)(C)C)cc1 28.2 µM [inhibitor, single point]
Cc1cc(C)c(S(=O)(=O)NC2CC3CCC2C3)c(C)c1 (centres undefined) 20 µM [inhibitor, partial curve, poor fit]
CCOc1ccc(C(=O)Nc2onc3c2CCCC3)cc1 14.1 µM [inhibitor, single point]
CCc1ccc2oc(=O)cc(CN(C)Cc3ccccc3)c2c1 11.2 µM [inhibitor, partial curve, poor fit]
C=CCC1(CC=C)CCCN1C(=O)c1cc(COc2cccc(OC)c2)on1 12.6 µM [inhibitor, single point]
O=C(Nc1nnc(S(=O)(=O)N2CCCCCC2)s1)c1cccc(Br)c1 10 µM [inhibitor, single point] and 8.91 µM [inhibitor, partial curve, poor fit]
CCOc1cc(/C=N/Nc2nnc(C)n2N)ccc1OC(C)=O 28.2 µM [inhibitor, single point]
Cc1cccc(NC(=S)N/N=C/c2ccc3c(c2)OCO3)c1 3.55 µM [inhibitor, full curve, poor fit]
COc1ccc(Cl)cc1-c1cc(C(=O)NCc2ccc(C(F)(F)F)cc2)[nH]n1 15.8 µM [inhibitor, single point]
O=S(=O)(NC1CCSc2ccccc21)c1ccccc1 (centres undefined) 31.6 µM [inhibitor, single point]
Cc1ccccc1C(=O)/C(C#N)=N/Nc1c(C)n(C)n(-c2ccccc2)c1=O 11.2 µM [inhibitor, single point]
Cc1cccc(N2CCN(C(=O)Cn3ncc4c3-c3ccccc3OC4)CC2)c1C 12.6 µM [inhibitor, partial curve, poor fit]
FC(F)(F)c1nc(N2CCCC2)ncc1-c1nnnn1-c1ccccc1 10 µM [inhibitor, single point]
O=C(c1cc(Br)c(Br)s1)N1CCN(c2ccccn2)CC1 11.2 µM [inhibitor, single point]
O=C(CSc1ncccc1C(=O)O)c1ccc2ccccc2c1 11.2 µM [inhibitor, partial curve, poor fit]
NC(Cc1ccc(F)cc1)c1csc(Nc2ccc(C(F)(F)F)cn2)n1 (centres undefined) 4.47 µM [inhibitor, partial curve, poor fit]
CN(Cc1ccon1)Cc1cn(C)nc1-c1ccc(Oc2ccccc2)cc1 6.31 µM [inhibitor, partial curve, poor fit]
COc1ccc(CCNC(=O)c2ccc3c(c2)c(C)c(C)n3Cc2ccccc2)c(OC)c1OC 28.2 µM [inhibitor, single point]
CCCCCN(C(=O)COC(=O)COc1c(C)cc(C)cc1C)c1c(N)n(CCCC)c(=O)[nH]c1=O 28.2 µM [inhibitor, single point]
Clc1ccc(Cl)c(OCCCCN2CCNCC2)c1 4.47 µM [inhibitor, partial curve, poor fit]
COc1ccc(CN2C3CCCC2CC(NC(=O)Nc2ccccc2)C3)cc1 (centres undefined) 31.6 µM [inhibitor, single point]
O=C(Cc1c(F)cccc1Cl)OCC(=O)N1CCN(c2ccccc2)CC1 28.2 µM [inhibitor, single point]
CC(Nc1nc(Nc2ccc(F)cc2)nc(SCC(N)=O)n1)c1ccccc1 (centres undefined) 8.91 µM [inhibitor, single point]
Cc1oc(-c2ccccc2F)nc1CSCC(=O)NC1CCCC1 12.6 µM [inhibitor, partial curve, poor fit]
O=C(CC1CC2CCC1C2)NC1CCCCCCC1 (centres undefined) 7.94 µM [inhibitor, partial curve, poor fit]
O=C(C(=O)N1CCC(Cc2ccccc2)CC1)c1ccccc1Br 28.2 µM [inhibitor, single point]
CCN(CC)c1ccc(/C=N/NC(=O)CNC(=O)c2ccc3c(c2)OCCO3)cc1 28.2 µM [inhibitor, single point]
O=C(Nc1ccccc1)N1CCN(Cc2ccc(Cl)cc2)CC1 8.91 µM [inhibitor, partial curve, poor fit]

Potency, active:
Cc1ccc(C(=O)NCCc2cccs2)cc1 5.01 µM
